# This is one part of the list. Many values rest on one well or one pass, so single values are uncertain.
# System: WM3526
# Experiment: cell count relative to DMSO control; melanoma cells; higher = more viable cells
# Settings: library dose: standard library concentration; 72 h
# 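Note: cells treated in 1,536-well plates, then fixed and DAPI-stained, with nuclei counted from automated high-throughput microscope images.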
row,Compound,cell count [%]
1,"NC1(c2ccc(-c3nc4ccn5c(=O)[nH]nc5c4cc3-c3ccccc3)cc2)CCC1 + O=C(Nc1cccc(Cl)c1)Nc1ncc(CCNc2ncnc3ccsc23)s1 [SNS314] (first compound 2 µM, partner dose 0.004 µM)",63.6
2,"CCCS(=O)(=O)Nc1ccc(F)c(C(=O)c2c[nH]c3ncc(Cl)cc23)c1F + Cc1ccc(NC(=O)c2cccc(N(C)C)c2)cc1NC(=O)c1ccc(O)cc1 [ZM336372] (first compound 0.4 µM, partner dose 10 µM)",65.6
3,"CCCS(=O)(=O)Nc1ccc(F)c(C(=O)c2c[nH]c3ncc(Cl)cc23)c1F + Nc1nc(F)nc2c1ncn2[C@@H]1O[C@H](CO)[C@@H](O)[C@@H]1O [fludarabine] (first compound 0.4 µM, partner dose 1 µM)",27.2
4,"CS(=O)(=O)c1ccc(C(=O)Nc2ccc(Cl)c(-c3ccccn3)c2)c(Cl)c1 [vismodegib] + C[C@@H](Oc1cc(-c2cnn(C3CCNCC3)c2)cnc1N)c1c(Cl)ccc(F)c1Cl [Crizotinib] (first compound 5 µM, partner dose 1 µM)",85.4
5,"C=C(c1ccc(C(=O)O)cc1)c1cc2c(cc1C)C(C)(C)CCC2(C)C [Bexarotene] + CC1(C)NC(=O)N(c2ccc([N+](=O)[O-])c(C(F)(F)F)c2)C1=O [nilutamide] (first compound 10 µM, partner dose 5 µM)",91.4
6,"NC1(c2ccc(-c3nc4ccn5c(=O)[nH]nc5c4cc3-c3ccccc3)cc2)CCC1 + C[C@@H]1CCN(C(=O)CC#N)C[C@@H]1N(C)c1ncnc2[nH]ccc12 [CP690550] (first compound 2 µM, partner dose 5 µM)",60.9
7,"CN(c1ncccc1CNc1nc(Nc2ccc3c(c2)CC(=O)N3)ncc1C(F)(F)F)S(C)(=O)=O + CC(=O)c1c(C)c2cnc(Nc3ccc(N4CCNCC4)cn3)nc2n(C2CCCC2)c1=O [palbociclib] (first compound 0.4 µM, partner dose 0.2 µM)",53.8
8,"C=C(c1ccc(C(=O)O)cc1)c1cc2c(cc1C)C(C)(C)CCC2(C)C [Bexarotene] + CN(C)S(=O)(=O)c1ccc2c(c1)/C(=C/c1cc3c([nH]1)CCCC3)C(=O)N2 [SU6656] (first compound 10 µM, partner dose 2 µM)",95.2
9,"CCCS(=O)(=O)Nc1ccc(F)c(C(=O)c2c[nH]c3ncc(Cl)cc23)c1F + O=C(O)c1ccc(-c2c[nH]c3ncc(-c4ccccc4)cc23)cc1C1CCCC1 [GSK650394] (first compound 0.4 µM, partner dose 0.8 µM)",63.6
10,"CS(=O)(=O)c1ccc(C(=O)Nc2ccc(Cl)c(-c3ccccn3)c2)c(Cl)c1 [vismodegib] + CCCS(=O)(=O)Nc1ccc(F)c(C(=O)c2c[nH]c3ncc(Cl)cc23)c1F [PLX4720] (first compound 5 µM, partner dose 0.4 µM)",65.4

# — the supplement of paper PMC4604168 (melanoma cell lines)
